In all, about 94,000 compounds went through this assay and about 4,000 (4.3%) were called active. The inconclusive results got no clear call from the source; some entries with a clear call stand among them for comparison. The call rests on the fitted dose curve; in most records, active means well fitted inhibition curve with a large enough effect; inconclusive means small, poorly fitted or top-dose-only effect; inactive means no such curve, though single readings can be large or run the other way. A potency beside an inconclusive call is a rough fit, not a confirmed value.
Assay: Cytotoxic Profiling in NIH 3T3 Cell Line of Diverse Libraries Using Quantitative High-Throughput Screening; further: nearly all actives have a fitted effect of over 55% in size
Conditions: NIH 3T3 viability, CellTiter-Glo ATP luminescence, 48-72 h; series mostly up to 96.7 µM
Procedure, shortened: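 Cytotoxicity was measured by CellTiter-Glo ATP luminescence after 48 or 72 h compound exposure at 37 °C. Mouse NIH 3T3 fibroblasts were seeded at 400 cells/well and dosed by 23 nL pin transfer.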
Potency means the concentration at half of the fitted maximal effect; tags describe the fitted curve by direction and shape.

Compound | Potency
O=C(C1CCCC1)N1Cc2ccccc2CC2(CCN(Cc3cccnc3)C2)C1 (stereo not drawn) | inconclusive: 50.1 µM [inhibitor, partial curve, poor fit]
Cn1cnc(S(=O)(=O)N2CCC(c3noc(C4CC4)n3)C2)c1 (stereo not drawn) | inactive
COC(=O)CNC(=O)C1CCc2nnc(C3CCN(C(=O)c4ccccc4)CC3)n21 (stereo not drawn) | inactive
CC1Oc2ccc(NC(=O)c3cccs3)cc2CN(CCOc2ccccc2)C1=O (stereo not drawn) | inconclusive: 44.7 µM [inhibitor, partial curve, poor fit]
O=C1NCc2ccccc2CC12CCN(Cc1cccc(Cl)c1)CC2 | inconclusive: 70.8 µM [inhibitor, single point]
O=C(c1ccccc1)N1CCC2(CC1)CN[S+](=O)([O-])c1cccnc1O2 | inactive
COc1cccc(C(=O)N2CC(=O)N(Cc3ccc(Cl)cc3)CC(O)C2)c1 (stereo not drawn) | inconclusive: 70.8 µM [inhibitor, single point]
CCn1nccc1C(=O)N1C[C@@H](Oc2ccccc2)C[C@@H]1C(=O)N1CCOCC1 | inconclusive: 44.7 µM [inhibitor, partial curve, poor fit]
O=C(NCc1ccc(F)cc1)c1nc(-c2cccc(F)c2)c2cnccn12 | inconclusive: 17.8 µM [inhibitor, full curve]
Cc1nn2c(c1-c1ccccc1Oc1ccccc1)N(CC1CCOCC1)CCC2 | inconclusive: 56.2 µM [inhibitor, partial curve, poor fit]
CCNC(=O)c1n[nH]c2c1CN(C(=O)c1cccc(OC(F)(F)F)c1)CC2 | inconclusive: 44.7 µM [inhibitor, partial curve, poor fit]
CC1(C)[C@H]2CC[C@@H](CNC(=O)c3ccc(F)cc3)[C@@H]1C2 | inconclusive: 50.1 µM [inhibitor, full curve, poor fit]
O=C1CO[C@H]2CCN(CCCc3ccccc3)CC[C@@H]2N1Cc1ccccc1 | inconclusive: 89.1 µM [inhibitor, partial curve, poor fit]
CC(C)NC(=O)N[C@H]1CCN2C(=O)c3cc(-c4ccc(F)cc4F)ccc3NC(=O)[C@H]12 | inactive
COCC1(CNCc2cccc(OC)c2)C[C@@H](O)[C@@H](O)C1 (stereo partly drawn) | inactive
CCCNC(=O)N1CCC2(CC1)N(c1ccccc1)C(=O)CS2=O (stereo not drawn) | inconclusive: 79.4 µM [inhibitor, partial curve, poor fit]
Cc1ccc(CNC(=O)Cn2cccc2-c2nc(-c3ccc4c(c3)OCO4)no2)cc1 | inactive
Cn1ncc2c(C(=O)NCc3ccccc3)cc(-c3cccc(F)c3)nc21 | inconclusive: 31.6 µM [inhibitor, partial curve]
O=C(NCC1CCCN(C(=O)N2CCCC2)C1)c1ccc(-c2ccccc2)cc1 (stereo not drawn) | inconclusive: 79.4 µM [inhibitor, partial curve, poor fit]

Compound | Potency
COc1ccc(-c2noc(C(=O)NC3CCC3)c2[C@H](C)O)cc1 | inconclusive: 100 µM [inhibitor, partial curve]
COc1cccc([S+](=O)([O-])N2CCn3c(nn(-c4cccc(Cl)c4)c3=O)C2)c1 | inconclusive: 50.1 µM [inhibitor, partial curve, poor fit]
COCCNC(=O)c1cn2cc(-c3ccc(C(F)(F)F)cc3)sc2n1 | inconclusive: 31.6 µM [inhibitor, partial curve, poor fit]
O=C(Cn1ccn2nc(-c3ccccc3)c(CO)c2c1=O)N1CCN(c2ccccc2F)CC1 | inconclusive: 50.1 µM [inhibitor, partial curve, poor fit]
O=C(NC1CCN(c2ccc3nnc(-c4ccccc4)n3n2)C1)c1ccc(Cl)nc1 (stereo not drawn) | inconclusive: 50.1 µM [inhibitor, partial curve, poor fit]
Cc1ccc(CN2CCCCCCNC(=O)CC2c2ccccc2)o1 (stereo not drawn) | inconclusive: 44.7 µM [inhibitor, partial curve, poor fit]
Cc1cccc(C(=O)N2C(C(=O)NCc3ccco3)COC23CCN(C(=O)CC(C)(C)C)CC3)c1 (stereo not drawn) | inactive
Cn1ncc2c(C(=O)NCCc3cccc(F)c3)cc(-c3ccccc3C(F)(F)F)nc21 | inconclusive: 44.7 µM [inhibitor, partial curve, poor fit]
O=C(NC[C@H]1O[C@H](Cc2cc(COc3ccccc3)on2)CC[C@@H]1O)C1CCC1 | inconclusive: 126 µM [inhibitor, partial curve, poor fit]
O=C(NCc1cccc(C(F)(F)F)c1)[C@H]1CN(Cc2ccccc2)C[C@H]1C(=O)O | inconclusive: 50.1 µM [inhibitor, partial curve, poor fit]
O=C(Nc1ccc(F)cc1)c1ccc2ccnn2c1 | inconclusive: 70.8 µM [inhibitor, partial curve, poor fit]
Cc1cccc(S(=O)(=O)Nc2cccn3nc(C4CCC4)nc23)c1 | active: 44.7 µM
Cc1ccc(C(=O)N2CCC(N3C(=O)c4c(c(C)nn4-c4ccccc4)C3C)CC2)cc1 (stereo not drawn) | inconclusive: 50.1 µM [inhibitor, partial curve, poor fit]
COc1ncccc1-c1nccc2c(=O)cc(-c3cccnc3)oc12 | inconclusive: 56.2 µM [inhibitor, partial curve, poor fit]
Clc1cc(NC2CCCC2)n2nccc2n1 | inconclusive: 44.7 µM [inhibitor, partial curve, poor fit]
O=C(C1CC=CC1)N1C[C@@H](COc2cccnc2)[C@H](c2ccccn2)C1 | inconclusive: 44.7 µM [inhibitor, partial curve]
CC(=O)c1sccc1-c1cc(NCc2ccccn2)nc2[nH]ccc12 | inconclusive: 89.1 µM [inhibitor, single point]
Cc1ccc(-c2cc(-c3ccncc3)c3cncn3c2)cn1 | inconclusive: 22.4 µM [inhibitor, full curve, poor fit]
COC(=O)[C@@H]1Cc2c([nH]c3ccccc23)[C@H]2C[C@@H](NCCN3CCOCC3)C[C@@H](c3ccc(C(F)(F)F)cc3)N21 | active: 14.1 µM

Source: PubChem BioAssay AID1345082 (National Center for Advancing Translational Sciences (NCATS), 2018)
